# This is one part of the list. Single values are uncertain, as repeats are few or missing.
# How the values were obtained:
# Assay in all cases: cell count relative to DMSO control; melanoma cells; higher = more viable cells
# Details in all cases: library dose: standard library concentration; 72 h; first compound 2 µM
# [1] = tested on: G361
# [2] = tested on: IPC-298
# [3] = tested on: IST-MEL1
# [4] = tested on: LB2518-MEL
# [5] = tested on: LOXIMVI
# [6] = tested on: MEL-HO
# [7] = tested on: MZ2-MEL
# [8] = tested on: MeWo
# [9] = tested on: RPMI7951
# [10] = tested on: RVH-421
# [11] = tested on: SkMel28
# [12] = tested on: SkMel2
# [13] = tested on: SkMel30
# [14] = tested on: SkMel5
# [15] = tested on: UACC257
# [16] = tested on: UACC62
# [17] = tested on: WM115
# [18] = tested on: WM1716
# [19] = tested on: WM1745
# [20] = tested on: WM3526
# 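Further: cells treated in 1,536-well plates, then fixed and DAPI-stained, with nuclei counted from automated high-throughput microscope images.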
Structure (SMILES),cell count [1] [%],cell count [2] [%],cell count [3] [%],cell count [4] [%],cell count [5] [%],cell count [6] [%],cell count [7] [%],cell count [8] [%],cell count [9] [%],cell count [10] [%],cell count [11] [%],cell count [12] [%],cell count [13] [%],cell count [14] [%],cell count [15] [%],cell count [16] [%],cell count [17] [%],cell count [18] [%],cell count [19] [%],cell count [20] [%]
Cn1sc(=O)n(Cc2ccccc2)c1=O + CN(C)S(=O)(=O)c1ccc2c(c1)/C(=C/c1cc3c([nH]1)CCCC3)C(=O)N2 [SU6656] (partner dose 2 µM),61.3,72.6,89.9,67.1,97.2,85.3,95.2,80.8,35.4,95.7,80.9,82.6,80.3,80.4,89.5,63.4,48.8,68.1,54.2,74.1
CCCCCCCCCCCCCCCCCCOP(=O)([O-])OC1CC[N+](C)(C)CC1 [Perifosine] + COc1cc(Nc2ncc(F)c(Nc3ccc4c(n3)NC(=O)C(C)(C)O4)n2)cc(OC)c1OC [Tamatinib] (partner dose 2 µM),68,16.7,65.2,5.55,19.2,61.9,18.7,72.9,7.18,75.7,56.6,10.4,73.2,51.2,90.1,71.8,114,58.3,18.9,72.5
CCCCCCCCCCCCCCCCCCOP(=O)([O-])OC1CC[N+](C)(C)CC1 [Perifosine] + C#Cc1cccc(Nc2ncnc3cc(OCCOC)c(OCCOC)cc23)c1 [erlotinib] (partner dose 4 µM),64.5,49.5,93.4,63,92,73.9,69.7,58.2,41.2,69.1,49.1,78.1,59,55.1,100,52.6,63.1,89.9,71.3,61.1
CCCCCCCCCCCCCCCCCCOP(=O)([O-])OC1CC[N+](C)(C)CC1 [Perifosine] + Cn1cnc2c(F)c(Nc3ccc(Br)cc3Cl)c(C(=O)NOCCO)cc21 [selumetinib] (partner dose 0.075 µM),81.2,54.8,79.2,62.8,90.2,81.7,82.3,95.1,24.9,73.2,59.4,69.3,45.2,84.2,114,61.5,74.8,79.5,90.6,71.3
CCCCCCCCCCCCCCCCCCOP(=O)([O-])OC1CC[N+](C)(C)CC1 [Perifosine] + C=CCn1c(=O)c2cnc(Nc3ccc(N4CCN(C)CC4)cc3)nc2n1-c1cccc(C(C)(C)O)n1 [MK1775] (partner dose 0.1 µM),93.6,76.7,83.2,52.7,62.9,83.6,96.7,76.7,25.1,76.6,31.7,68.7,64.1,48.4,84.1,66.6,74.4,81.8,37.3,78.7
CCCCCCCCCCCCCCCCCCOP(=O)([O-])OC1CC[N+](C)(C)CC1 [Perifosine] + CCCCCCCCc1ccc(CCC(N)(CO)CO)cc1 [fingolimod] (partner dose 10 µM),0.522,40.7,23.7,0.168,24.4,2.74,34.8,57.5,0.99,44.1,1.93,0.093,10.6,70.2,75.8,14,22.7,61.9,5.25,44.5
CCCCCCCCCCCCCCCCCCOP(=O)([O-])OC1CC[N+](C)(C)CC1 [Perifosine] + CC1(C)NC(=O)N(c2ccc([N+](=O)[O-])c(C(F)(F)F)c2)C1=O [nilutamide] (partner dose 5 µM),68.1,109,93.8,80.3,71.5,101,109,96.4,27.1,56.6,37.7,69.6,95.7,103,97,78.3,84.3,70,71.3,85.9
C[C@@H](N)c1ccc(C(=O)Nc2ccnc3[nH]ccc23)cc1 + NC(=O)Nc1cc(-c2cccc(F)c2)sc1C(=O)N[C@H]1CCCNC1 [AZD7762] (partner dose 0.1 µM),107,131,75.6,86.2,75.3,93.2,72.1,70,39.4,59.3,79.4,133,118,69.9,67,73.2,71.5,33.1,41.9,64.7
Cn1sc(=O)n(Cc2ccccc2)c1=O + C[C@]1(O)C[C@@H](c2nc(-c3ccc4ccc(-c5ccccc5)nc4c3)c3c(N)nccn32)C1 [OSI906] (partner dose 2 µM),95.1,99.2,23.9,102,87.2,89.4,92.1,83.8,70.7,56.3,80.6,88,95.5,116,103,91.5,106,109,71,129

# Reference: the supplement of paper PMC4604168 (melanoma cell lines)
